Experimental findings from US20160313325A1 are described below.

Test [1] concerns the target gp41 of pNL-AD87 (Env from the CCR5-tropic clone AD87 in the pNL4-3 backbone) (HIV-1 clone AD87 (subtype B, CCR5-tropic)).
The target in test [2] is gp41 of pNL-Bal (Env from the CCR5-tropic clone BAL2 in the pNL4-3 backbone) (HIV-1 clone BAL2 (subtype B, CCR5-tropic)).

Consider T20 (Enfuvirtide, Fuzeon) (peptide), for which the IC50 (nM), inhibition of viral replication, deCIPhR cell to cell infection in test [1] amounted to 63 nM; in test [2] it was 10 nM.
